From the supplement of paper PMC12645437, “Orthogonal IMiD-Degron Pairs Induce Selective Protein Degradation in Cells” (ACS Chemical Biology, 2025)
This is one part of the list.

Molecular target: no compound (DMSO)
Assay: log2 fold change of degron read counts, EGFP-low vs EGFP+ sorted cells; higher = lower degron-EGFP level without compound (poor expression or instability)
Settings: compound: DMSO control; 18 h
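Also: jurkat cells carrying a lentiviral library of mutant zinc finger degrons fused to EGFP plus mCherry, mCherry+ cells FACS sorted, degron abundance counted by next-generation sequencing.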

Row | Sequence | log2 fold change of degron read counts
1 | LICNQCGFGCTQKGNLLRHIKL | 0.548
2 | FQCEICGHGFTQKGNLLRHIKL | -2.98
3 | FGCDVCGAYFTQKGNLLRHIKL | 0.0431
4 | FHCNVCGAHFTQKGNLLRHIKL | -1.38
5 | FACNICGASFTQKGNLLRHIKL | -0.944
6 | FQCPICGREFTQKGNLLRHIKL | 0.0797
7 | FECNVCGASFTQKGNLLRHIKL | -1.82
8 | FWCDICGALFTQKGNLLRHIKL | 0.67
9 | FHCPICGRCFTQKGNLLRHIKL | -0.859
10 | FRCPICGRKFTQKGNLLRHIKL | -0.738
11 | FLCNICGAKFTQKGNLLRHIKL | -1.07
12 | FFCPICGRSFTQKGNLLRHIKL | -1.21
13 | FGCEICGAVFTQKGNLLRHIKL | -0.662
14 | FMCEVCGANFTQKGNLLRHIKL | -1.97
15 | FCCDVCGAGFTQKGNLLRHIKL | -2.28
16 | LSCNQCGFHCTQKGNLLRHIKL | 0.547

Row | Sequence | log2 fold change of degron read counts
17 | FTCNQCGAPFTQKGNLLRHIKL | -0.786
18 | FGCDVCGAVFTQKGNLLRHIKL | -0.897
19 | FLCNQCGHQFTQKGNLLRHIKL | -0.56
20 | FSCDVCGAMFTQKGNLLRHIKL | -0.585
21 | LNCEICGFGCTQKGNLLRHIKL | 0.277
22 | FCCDICGANFTQKGNLLRHIKL | -0.925
23 | FFCPQCGAWFTQKGNLLRHIKL | 1.29
24 | FSCEICGRQFTQKGNLLRHIKL | -1.24
25 | FNCNQCGREFTQKGNLLRHIKL | -1.34
26 | FHCPICGRHFTQKGNLLRHIKL | -0.897
27 | FQCNICGANFTQKGNLLRHIKL | -0.546
28 | FNCPVCGAMFTQKGNLLRHIKL | -0.324
29 | FFCNQCGHKFTQKGNLLRHIKL | 0.191
30 | FRCPICGHHFTQKGNLLRHIKL | -0.0734
31 | LLCPICGFRCTQKGNLLRHIKL | 0.477
32 | FLCPICGHRFTQKGNLLRHIKL | -0.567
